Laboratory results published in US20240376128A1, “N-CYCLOPROPYLPYRIDO [4, 3-D] PYRIMIDIN-4-AMINE DERIVATIVES AND USES THEREOF” (Jacobio Pharmaceuticals Co., Ltd., priority 2021, published 2024).

Key:
[1] = molecular target: K-Ras G12D (Homo sapiens, UniProt P01116, G12D); experiment: GTP-K-Ras (GppNp-K-Ras) and cRAF interaction assay, HTRF; details: read-out: Biochemical assays, IC50, K-Ras G12D GppNp
Description: (§1) GppNp is an analog of GTP.

[2] = molecular target: T1, K-Ras G12V (Homo sapiens, UniProt P01116, G12V); experiment: SOS1 catalyzed nucleotide exchange assay (GDP form K-Ras), TR-FRET; details: read-out: Biochemical assays, IC50, K-Ras G12V GDP
Procedure: (§2) The parameters were F486: Excitation 340 nm, Emission 486 nm, Lag time 100 pas, Integration time 200 pas; F515: Excitation 340 nm, Emission 515 nm, Lag time 100 pas, Integration time 200 pas. TR-FRET ratios for each individual wells were calculated by equation: TR-FRET ratio=(Signal F515/Signal F486)*10000.

[3] = molecular target: T1, K-Ras G12V; experiment: GTP-K-Ras (GppNp-K-Ras) and cRAF interaction assay, HTRF; details: read-out: Biochemical assays, IC50, K-Ras G12V GppNp
Description: as §1

[4] = molecular target: K-Ras G12A (Homo sapiens, UniProt P01116, G12A); experiment: as above; details: read-out: Biochemical assays, IC50, K-Ras G12A GppNp
Description: as §1

[5] = molecular target: T2, K-Ras G12R (Homo sapiens, UniProt P01116, G12R); experiment: as above; details: read-out: Biochemical assays, IC50, K-Ras G12R GppNp
Description: as §1

[6] = molecular target: T3, K-Ras Q61H (Homo sapiens, UniProt P01116, Q61H); experiment: as above; details: read-out: Biochemical assays, IC50, K-Ras Q61H GppNp
Description: as §1

[7] = molecular target: T2, K-Ras G12R; experiment: SOS1 catalyzed nucleotide exchange assay (GDP form K-Ras), TR-FRET; details: read-out: Biochemical assays, IC50, K-Ras G12R GDP
Procedure: as §2

[8] = molecular target: T3, K-Ras Q61H; experiment: as above; details: read-out: Biochemical assays, IC50, K-Ras Q61H GDP
Procedure: as §2

[9] = molecular target: K-Ras WT (Homo sapiens, UniProt P01116); experiment: as above; details: read-out: Biochemical assays, IC50, K-Ras WT GDP
Procedure: as §2

Compound	IC50 [1]	IC50 [2]	IC50 [9]	other results
CCc1c(F)ccc2cc(O)cc(-c3ncc4c(N(C)[C@@H]5C[C@H]5F)nc(OC[C@@]56CCCN5C[C@H](F)C6)nc4c3F)c12.O=C(O)C(F)(F)F (mixture of isomers) [Compound 15, 5-ethyl-6-fluoro-4-(8-fluoro-4-((trans-2-fluorocyclopropyl)(methyl)amino)-2-(((2R,7aS)-2-fluorotetrahydro-1H-pyrrolizin-7a(5H)-yl)methoxy)pyrido[4,3-d]pyrimidin-7-yl)naphthalen-2-ol 2,2,2-trifluoroacetic acid]	172 nM	6.53 nM		
C#Cc1c(F)ccc2cc(O)cc(-c3ncc4c(N(C)[C@@H]5C[C@@H]5F)nc(OC[C@@]56CCCN5C[C@H](F)C6)nc4c3F)c12 [Compound 13, 5-ethynyl-6-fluoro-4-(8-fluoro-4-(((1R,2S)-2-fluorocyclopropyl)(methyl)amino)-2-(((2R,7aS)-2-fluorotetrahydro-1H-pyrrolizin-7a(5H)-yl)methoxy)pyrido[4,3-d]pyrimidin-7-yl)naphthalen-2-ol]	1310 nM	5.11 nM		IC50 [3]: 1820 nM
[2H]C([2H])([2H])N(c1nc(OC([2H])([2H])[C@@]23CCC([2H])([2H])N2C[C@]([2H])(F)C3)nc2c(F)c(-c3cc(O)cc4ccc(F)c(C#C)c34)ncc12)C1CC1 [Compound 26, 4-(4-(cyclopropyl(methyl-d3)amino)-8-fluoro-2-(((2R,7aS)-2-fluorotetrahydro-1H-pyrrolizin-7a(5H)-yl-2,5,5-d3)methoxy-d2)pyrido[4,3-d]pyrimidin-7-yl)-5-ethynyl-6-fluoronaphthalen-2-ol]				IC50 [4]: 411 nM; IC50 [5]: 154 nM; IC50 [6]: 172 nM; IC50 [7]: 8.85 nM; IC50 [8]: 8.56 nM
C#Cc1c(F)ccc2cc(O)cc(-c3ncc4c(N(C5CC5)C5CC5)nc(OC[C@@]56CCCN5C[C@H](F)C6)nc4c3F)c12 [Compound 48, 4-(4-(dicyclopropylamino)-8-fluoro-2-(((2R, 7aS)-2-fluorotetrahydro-1H-pyrrolizin-7a(5H)-yl)methoxy)pyrido[4,3-d]pyrimidin-7-yl)-5-ethynyl-6-fluoronaphthalen-2-ol]			140 nM	
C#Cc1c(F)ccc2cc(O)cc(-c3ncc4c(N(C)C5(C#N)CC5)nc(OC[C@@]56CCCN5C[C@H](F)C6)nc4c3F)c12 [Compound 59, 1-((7-(8-ethynyl-7-fluoro-3-hydroxy-naphthalen-1-yl)-8-fluoro-2-(((2R,7aS)-2-fluorotetrahydro-1H-pyrrolizin-7a(5H)-yl)methoxy)pyrido[4,3-d]pyrimidin-4-yl)(methyl)amino)cyclopropane-1-carbonitrile]			214 nM	
